Test results: the BET-seq Pho4 binding data (Le et al. 2018)
The list shows a part of the results. Values were computed here from the reads of four pooled replicates and scatter widely.

target: T1, Pho4 (S. cerevisiae) (UniProt P07270); experiment: relative binding free energy (BET-seq); higher = weaker binding; settings: reference: library average
T1 sequence: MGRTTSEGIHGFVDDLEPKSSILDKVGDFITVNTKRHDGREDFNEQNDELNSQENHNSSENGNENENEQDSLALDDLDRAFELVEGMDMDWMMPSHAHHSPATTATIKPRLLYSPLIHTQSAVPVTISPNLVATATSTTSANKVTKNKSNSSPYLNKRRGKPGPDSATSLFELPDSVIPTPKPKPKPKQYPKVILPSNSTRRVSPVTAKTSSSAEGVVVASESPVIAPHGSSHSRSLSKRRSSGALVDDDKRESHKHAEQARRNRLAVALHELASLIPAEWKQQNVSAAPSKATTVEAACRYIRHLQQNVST

| Sequence | relative binding free energy |
| --- | --- |
| GAAGGCACGTGAAGGG | 0.15 kcal/mol |
| GTTATCACGTGCTTTG | 0.24 kcal/mol |
| TAGGACACGTGGTGGT | 0.03 kcal/mol |
| GGCAGCACGTGAGGTG | 0.35 kcal/mol |
| ACGTTCACGTGTAGTT | 0.32 kcal/mol |
| TGTTGCACGTGCGGCT | -0.02 kcal/mol |
| TCGTCCACGTGAGGGG | 0.15 kcal/mol |
| GGTGGCACGTGCTTAG | -0.18 kcal/mol |
| GGGTGCACGTGAGCAG | 0.3 kcal/mol |
| TCATTCACGTGGGATG | 0.16 kcal/mol |
| GTGTTCACGTGAAATG | 0.33 kcal/mol |
| TTATACACGTGGTGTA | -0.14 kcal/mol |
| ATCTTCACGTGATTTG | 0.5 kcal/mol |
| CCTGGCACGTGTGGTA | -0.12 kcal/mol |
| TGTGTCACGTGGCGGT | 0.03 kcal/mol |
| TTGAGCACGTGTTGTG | -0.05 kcal/mol |
| GGTCCCACGTGTTGTT | -0.11 kcal/mol |
| TCGTACACGTGGGGTA | -0.14 kcal/mol |
| GTCGTCACGTGTTAAG | 0.16 kcal/mol |
| TATGGCACGTGCTCGG | -0.18 kcal/mol |
| GATGCCACGTGAGGGG | 0.19 kcal/mol |
| AGTAACACGTGAGGGA | 0.1 kcal/mol |
| AGTTTCACGTGAGTTA | 0.27 kcal/mol |

| Sequence | relative binding free energy |
| --- | --- |
| GGCTGCACGTGGTTGC | 0.08 kcal/mol |
| ACTAACACGTGGGTGG | -0.08 kcal/mol |
| ACTGGCACGTGGTTAG | -0.21 kcal/mol |
| GGTGTCACGTGCTGCT | -0.06 kcal/mol |
| AGATTCACGTGTGGGA | 0.34 kcal/mol |
| CGTGTCACGTGGGTTT | -0.07 kcal/mol |
| GGTCCCACGTGTGGTT | -0.03 kcal/mol |
| GCATTCACGTGGGGGC | 0.14 kcal/mol |
| TTAGGCACGTGTTAGG | -0.12 kcal/mol |
| GTTCTCACGTGGGGGG | 0.17 kcal/mol |
| TGGTGCACGTGAGCAG | 0.03 kcal/mol |
| CGGGTCACGTGGAAGT | 0.36 kcal/mol |
| TCAAGCACGTGGGGTA | -0.23 kcal/mol |
| ACAGGCACGTGGGGTG | -0.29 kcal/mol |
| CGTAGCACGTGGAGGG | -0.15 kcal/mol |
| AGTGCCACGTGGTGGA | -0.18 kcal/mol |
| TCGGGCACGTGAGGTC | 0.2 kcal/mol |
| TAGGACACGTGGGAAT | -0.11 kcal/mol |
| TTTTTCACGTGCTCAT | 0.24 kcal/mol |
| TATCACACGTGTATGG | 0.05 kcal/mol |
| GGGTTCACGTGAATGT | 0.32 kcal/mol |
| TCGAACACGTGGCTTG | 0.26 kcal/mol |
| GAGAACACGTGCTGGG | 0.04 kcal/mol |

| Sequence | relative binding free energy |
| --- | --- |
| AGGGGCACGTGTCCTG | -0.23 kcal/mol |
| GTATCCACGTGGGTAA | 0.07 kcal/mol |
| TGGTACACGTGATTGA | 0.26 kcal/mol |
| ATTGACACGTGTGCTG | 0.03 kcal/mol |
| TGATTCACGTGATGGA | 0.37 kcal/mol |
| AGTGGCACGTGTTTCG | -0.17 kcal/mol |
| TATTGCACGTGGTATG | -0.06 kcal/mol |
| GAAAGCACGTGTGAGG | -0.12 kcal/mol |
| TATAGCACGTGTGATG | -0.09 kcal/mol |
| GGGTCCACGTGAAGGG | 0.29 kcal/mol |
| CGCGTCACGTGTGGAG | 0.17 kcal/mol |
| TTCGACACGTGGTTGG | 0.08 kcal/mol |
| GGGCTCACGTGAGGCG | 0.51 kcal/mol |
| TGTACCACGTGTGTAG | -0.13 kcal/mol |
| GTGAACACGTGCGTTT | -0.11 kcal/mol |
| GTGTTCACGTGTCATA | 0.13 kcal/mol |
| GCAAGCACGTGGGTTT | -0.22 kcal/mol |
| GCTAGCACGTGTTGTT | -0.07 kcal/mol |
| TGTGACACGTGGGGGT | -0.15 kcal/mol |
| ACTATCACGTGAGTGG | 0.28 kcal/mol |
| GGGGACACGTGCGGCG | 0.01 kcal/mol |
| CGGAACACGTGTGGAT | 0.18 kcal/mol |
| TGTTTCACGTGAGAGG | 0.48 kcal/mol |

| Sequence | relative binding free energy |
| --- | --- |
| GGGGCCACGTGGATGT | -0.01 kcal/mol |
| GGAAGCACGTGGCGTT | -0.04 kcal/mol |
| AGTATCACGTGTGGGG | 0.23 kcal/mol |
| GGTTGCACGTGGGTTG | -0.03 kcal/mol |
| ATAAACACGTGCGGGT | -0.05 kcal/mol |
| GGCTTCACGTGGGATA | 0.29 kcal/mol |
| GTACACACGTGGGTGG | -0.14 kcal/mol |
| ACTATCACGTGTGTGG | 0.07 kcal/mol |
| AGTGTCACGTGTGATG | 0.12 kcal/mol |
| GGTGTCACGTGGTCGA | 0.08 kcal/mol |
| ATTAGCACGTGAGTCG | 0.12 kcal/mol |
| ATATGCACGTGGCTTT | -0.21 kcal/mol |
| ATGAGCACGTGTTAGG | -0.32 kcal/mol |
| GTTCTCACGTGGGGTT | 0.18 kcal/mol |
| TTGTCCACGTGTTTAG | 0.03 kcal/mol |
| TGTGGCACGTGTAAAG | 0.16 kcal/mol |
| TCTTGCACGTGAGGCG | 0.18 kcal/mol |
| TCTTACACGTGTGCTG | 0.14 kcal/mol |
| GTGATCACGTGTATGT | 0.19 kcal/mol |
| CTCTGCACGTGGGGGG | -0.19 kcal/mol |
| ATAATCACGTGTTGGG | 0.24 kcal/mol |
| TAGGACACGTGGCGGT | 0.08 kcal/mol |
| TGTGACACGTGTAATT | 0.12 kcal/mol |

| Sequence | relative binding free energy |
| --- | --- |
| TTTGGCACGTGTCTCG | -0.14 kcal/mol |
| GCGGTCACGTGGGATT | 0.2 kcal/mol |
| TGTCTCACGTGAATGG | 0.37 kcal/mol |
| TAACGCACGTGGCGGT | -0.15 kcal/mol |
| GAAGGCACGTGGGGAT | -0.1 kcal/mol |
| AGCGTCACGTGGGTCG | -0.05 kcal/mol |
| GTTCACACGTGGATTG | 0.07 kcal/mol |
| GGTAACACGTGGGGTA | -0.11 kcal/mol |
| TTGACCACGTGTGGGG | 0.05 kcal/mol |
| GTGTGCACGTGTGGTT | 0.03 kcal/mol |
| ATTTTCACGTGCGGCG | 0.28 kcal/mol |
| ATGCGCACGTGGTTTG | -0.17 kcal/mol |
| ACGTGCACGTGGGGAT | -0.16 kcal/mol |
| GGTAGCACGTGTGCGA | -0.02 kcal/mol |
| TGGTTCACGTGTGCAT | 0.18 kcal/mol |
| TTGTACACGTGATTAA | 0.2 kcal/mol |
| TGAAACACGTGGAGTT | 0.07 kcal/mol |
| TTGGTCACGTGACAAT | 0.26 kcal/mol |
| TATTCCACGTGGGGGC | -0.02 kcal/mol |
| AGCAACACGTGGTGAG | 0.1 kcal/mol |
| GGCTACACGTGGTCGG | 0.15 kcal/mol |
| TTTCTCACGTGTTGAA | 0.2 kcal/mol |
| CTGTGCACGTGTGGTC | -0.16 kcal/mol |
